{
  "source": "PubChem BioAssay AID624296",
  "about": "(National Center for Advancing Translational Sciences (NCATS), 2012)",
  "note": "Out of some 350,000 compounds screened, about 9,900 (2.8%) were called active. Inconclusive means that the source gave no clear call. Such entries were picked first, then a sample of the others. Calls come from the whole dose curve; as a rule, active = well fitted activation curve with a large enough effect; inconclusive = small, poorly fitted or top-dose-only effect; inactive = no such curve, though single readings can be large or run the other way. No potency is given beside an inconclusive call; the fits are too rough. Potency is the fitted concentration of half-maximal effect; tags give direction and shape of the fitted curve.",
  "data": [
    {"assay": "A quantitative high throughput screen for small molecules that induce DNA re-replication in MCF 10a normal breast cells; note: nearly all actives have a fitted effect of over 50% in size.", "conditions": "MCF 10A DNA re-replication, Hoechst nuclear intensity, 48 h; series mostly up to 46.1 µM", "values": [
      {"molecule": "CCOC(=O)[C@H]1[C@H]2COc3ccccc3[C@@H]2N2C(=O)CNC(=O)[C@@]12C", "Potency": "inactive"},
      {"molecule": "CCS(=O)(=O)NCCc1cc2ccc(C)cc2[nH]c1=O", "Potency": "inactive"},
      {"molecule": "C=CCN1C(=O)c2ccc(C(=O)N3CCN(S(=O)(=O)c4cccc(F)c4)CC3)cc2C1=O", "Potency": "inactive"},
      {"molecule": "CCOCCCn1c(SCC(=O)Nc2ccccc2OC)nc2ccccc2c1=O", "Potency": "inconclusive [activator, partial curve]"},
      {"molecule": "CC1/C(=N/O)CC(c2ccccc2)N(C)C1c1ccccc1", "note": "(configuration not stated)", "Potency": "inconclusive [activator, full curve, poor fit]"},
      {"molecule": "COc1ccc(O)c(/C=N/n2c(-c3ccco3)csc2=Nc2cccnc2)c1", "Potency": "inactive"},
      {"molecule": "O=C1Nc2ccccc2O/C1=C\\c1ccccc1Br", "Potency": "inconclusive [activator, single point]"},
      {"molecule": "CCOc1ccc2c3c(c(=O)oc2c1OCC)CCCC3", "Potency": "inconclusive [activator, partial curve, poor fit]"},
      {"molecule": "COc1ccnc(NCc2ccc(Cl)cc2)c1C#N", "Potency": "inconclusive [activator, partial curve, poor fit]"},
      {"molecule": "Cc1nc2sccn2c(=O)c1S(=O)(=O)Nc1ccc(N2CCN(C(=O)C(C)C)CC2)cc1", "Potency": "inactive"},
      {"molecule": "CCN(CC)CCn1c(SCC(=O)Nc2ccc3c(c2)CCC3)nc2ccccc2c1=O", "Potency": "inconclusive [activator, single point]"},
      {"molecule": "CC(=O)Nc1ccccc1OCC(=O)N(Cc1ccccc1)C(C)C", "Potency": "inactive"},
      {"molecule": "CCN(CC)S(=O)(=O)c1ccc(N=N/C(C(C)=O)=C(/C)O)cc1", "Potency": "inconclusive [activator, full curve, poor fit]"},
      {"molecule": "COc1cc(C(=O)OCC(=O)NCCC2=CCCCC2)ccc1OCC(C)C", "Potency": "inactive"},
      {"molecule": "CCCCCCOC(=O)C(C#N)c1nc2ccccc2nc1N1CCOCC1", "note": "(configuration not stated)", "Potency": "inactive"},
      {"molecule": "COc1ccccc1NC(=O)c1ccc(NC(=O)COC(=O)C2(C)CC2(Cl)Cl)cc1", "note": "(configuration not stated)", "Potency": "inconclusive [activator, single point]"},
      {"molecule": "Cc1ccccc1C(=O)NC(=S)Nc1ccc(S(=O)(=O)N2CCN(C)CC2)cc1", "Potency": "inconclusive [activator, full curve, poor fit]"},
      {"molecule": "CCOc1ccc(S(=O)(=O)NCc2ccncc2)cc1NC(=O)c1ccccc1F", "Potency": "inconclusive [activator, single point]"},
      {"molecule": "CCOC(=O)C1(CCCc2ccccc2)CCN(Cc2cnc(C)s2)CC1", "Potency": "inconclusive [activator, single point]"},
      {"molecule": "CN(Cc1nnc(-c2ccc(F)cc2)o1)c1ccccc1", "Potency": "inactive"},
      {"molecule": "N#Cc1c(N2CCSCC2)nsc1-c1ccccc1Cl", "Potency": "inconclusive [activator, single point]"},
      {"molecule": "O=C(Nc1ccc(Cl)c(Cl)c1)c1ccc(Cn2c(=O)[nH]c3ccsc3c2=O)cc1", "Potency": "active: 16.4 µM"},
      {"molecule": "O=C(c1cccc(Oc2ccccc2)c1)N1CCN(c2ccccn2)CC1", "Potency": "inconclusive [activator, partial curve, poor fit]"},
      {"molecule": "Cc1ccc(S(=O)(=O)c2nc(-c3ccccc3Br)oc2N(C)C)cc1", "Potency": "inconclusive [activator, single point]"},
      {"molecule": "Cc1cnc(NC(=O)C2CCC(C(C)(C)C)CC2)s1", "note": "(configuration not stated)", "Potency": "inconclusive [activator, partial curve, poor fit]"},
      {"molecule": "CC(=O)OC1CCC2(C)C(=CCC3C4CC(=O)N(O)C(=O)C4(C)CCC32)C1", "note": "(configuration not stated)", "Potency": "inactive"},
      {"molecule": "Cc1cccc(C)c1NC(=S)NC(=O)CCc1ccccc1", "Potency": "inconclusive [activator, single point]"},
      {"molecule": "COc1ccccc1C(=O)NCCC(=O)Nc1ccc(S(=O)(=O)N2CCCC(C)C2)cc1", "note": "(configuration not stated)", "Potency": "inconclusive [activator, partial curve, poor fit]"},
      {"molecule": "COc1ccc2cc(Br)ccc2c1CC(=O)NC(C)(C)C", "Potency": "inconclusive [activator, single point]"},
      {"molecule": "Cc1nc2ccc(S(=O)(=O)Nc3cc(-c4nc5cccnc5s4)ccc3C)cc2s1", "Potency": "active: 0.82 µM"},
      {"molecule": "CCOC(=O)CS(=O)(=O)c1nc(-c2ccc(F)cc2)cc(C(F)(F)F)n1", "Potency": "active: 3.66 µM"},
      {"molecule": "O=C(Nc1nnc(C2CC2)s1)c1ccc(Cl)nc1", "Potency": "inactive"},
      {"molecule": "COc1ccc(CN2CCN(C(=O)CCC(=O)Nc3nnc(C4CCCCC4)s3)CC2)cc1F", "Potency": "inconclusive [activator, full curve, poor fit]"},
      {"molecule": "S=C1SCN(Cc2ccco2)CN1Cc1ccco1", "Potency": "inconclusive [activator, single point]"},
      {"molecule": "O=C(CSc1nnnn1-c1ccccc1F)NNC(=O)c1ccco1", "Potency": "inconclusive [activator, partial curve, poor fit]"},
      {"molecule": "COc1cc(/C=C/[N+](=O)[O-])ccc1OCc1cccc(C(=O)O)c1", "Potency": "active: 10.3 µM"},
      {"molecule": "CCCCNC(=S)NNC(=O)c1csc(C(C)C)c1", "Potency": "inactive"},
      {"molecule": "COc1ccc(N(C)C(=O)Cc2c(C(=O)O)n(C)c3ccccc23)c(OC)c1", "Potency": "inactive"},
      {"molecule": "CC(NC(=O)CN(C)S(=O)(=O)c1cccc2nsnc12)c1ccccc1", "note": "(configuration not stated)", "Potency": "inactive"},
      {"molecule": "COc1ccc(Nc2ccnc(Nc3ccc(OC)cc3)n2)cc1", "Potency": "active: 23.1 µM"},
      {"molecule": "CCC(=O)OC1(C)C(=O)C2=COC(c3ccc(OC)cc3)=CC2=C(Br)C1=O", "note": "(configuration not stated)", "Potency": "inconclusive [activator, partial curve, poor fit]"},
      {"molecule": "Cc1ccc(S(=O)(=O)NCc2ccccc2)cc1C(=O)NC1CCC(C)CC1", "note": "(configuration not stated)", "Potency": "inactive"},
      {"molecule": "COc1ccc(N2CCN(C(=O)c3csc4ccccc34)CC2)cc1", "Potency": "inactive"},
      {"molecule": "CCOC(=O)C1Cn2c(nc3c(c2=O)C2(CCCC2)Cc2ccccc2-3)S1", "note": "(configuration not stated)", "Potency": "inconclusive [activator, single point]"},
      {"molecule": "CCOC(=O)c1c(NC(=O)C2C3C=CC(C3)C2C(=O)O)sc2c1CCCC2", "note": "(configuration not stated)", "Potency": "inactive"},
      {"molecule": "CCOC(=O)N1CCN(C(=S)NCCOC)CC1", "Potency": "inactive"},
      {"molecule": "CC1=NNC(=O)C1C(c1ccc(Cl)cc1)C(C#N)C#N", "note": "(configuration not stated)", "Potency": "inconclusive [activator, partial curve, poor fit]"}
    ]}
  ]
}
